About 60 (0.1%) of roughly 46,000 compounds were called active. Not shown: some 3% with an inconclusive outcome. Calls come from the whole dose curve; as a rule, active = well fitted inhibition curve with a large enough effect; inconclusive = small, poorly fitted or top-dose-only effect; inactive = no such curve, though single readings can be large or run the other way. This is one part of the list.
Assay: Primary qHTS assay for Inhibitors of ovarian cancer metastasis using an organotypic tumor microenvironment (TME) model.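 For activity change, negative = inhibition: plate controls were DMSO wells for no effect and tomatine positive control wells for full effect.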 Note: nearly all actives have a fitted effect of over 65% in size.
Settings: SKOV3ip1-GFP adhesion/invasion on 3D omental model, fluorescence; series mostly up to 45.8 µM; activity change, negative = inhibition: at the top concentration
Outline: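 A 3D layer of primary human omental fibroblasts, mesothelial cells, fibronectin and collagen I, grown 48 hr, received SKOV3ip1-GFP cells in serum-free medium plus compounds at 0.36-46 umol/L. After 2 hr RT and 16 hr 37 C, fixed adherent GFP cells were counted; normalized to DMSO and tomatine.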

Row | SMILES | activity change, negative = inhibition | outcome
1 | CCc1ccc(NC(=O)c2ccc(F)c(S(=O)(=O)NCc3ccc(Cl)c(Cl)c3)c2)cc1 | inactive: 3.43% | –
2 | CCN(CC)S(=O)(=O)c1ccc2c(c1)N(CC(=O)N1CCN(c3cccc(OC)c3)CC1)C(=O)CO2 | inactive: -4.08% | –
3 | Cc1c(Nc2nc3ccccc3n3c(C)nnc23)cccc1C(=O)O | inactive: 2.53% | –
4 | CCOc1ccccc1CNC(=O)c1ccc2c(c1)nc1n2CCCCC1 | inactive: 10% | –
5 | Cc1ccc(Cl)cc1-n1ncc2c(NCCCc3ccccc3)ncnc21 | inactive: 9.39% | –
6 | CN(C)c1ccc(-c2nc(-c3ccco3)no2)cc1[N+](=O)[O-] | inactive: 0.408% | –
7 | COc1ccc(NC(=O)c2ccco2)cc1NC(=O)COc1ccc(Cl)c(C)c1 | inactive: 4.06% | –
8 | Cc1ccc(-c2cc(C(=O)N(Cc3ccc(C(C)(C)C)cc3)Cc3ccco3)no2)cc1 | – | inactive
9 | Fc1ccc(-n2ncc3c(N4CCCCCC4)ncnc32)cc1 | – | inactive
10 | Cc1ccc(NC(=O)N2CC3CCCN3c3ccccc32)c(C)c1 (stereo not given) | inactive: -5.98% | –
11 | CCOc1ccc(C(=O)Nc2c(C(=O)N3CCN(c4ccccc4F)CC3)oc3ccccc23)cc1 | inactive: -0.252% | –
12 | Cc1cc(N2CCN(c3cccc(C(F)(F)F)c3)CC2)n2nc(-c3ccccc3)nc2n1 | – | inactive
13 | CCc1cccc(C)c1NC(=O)CCn1c(=O)c2cccn2c2ccccc21 | inactive: -8.69% | –
14 | CC(Oc1ccc(Br)cc1)C(=O)Nc1ncn[nH]1 (stereo not given) | inactive: 4.94% | –
15 | Cc1ccc([N+](=O)[O-])cc1S(=O)(=O)N1CCn2cccc2C1c1ccccc1 (stereo not given) | inactive: -6.29% | –
16 | CCOc1ccc(-n2nc(CO)c(C(=O)NCc3cccs3)n2)cc1 | – | inactive
17 | COc1ccc(N2CCN(Cc3cccn3-c3nnc(N4CCN(C5CCCCC5)CC4)s3)CC2)cc1 | – | inactive
18 | CCn1cc(C(=O)N2CCN(c3cc(C)ccc3C)CC2)c(=O)c2cc(S(=O)(=O)N3CCCCC3)ccc21 | inactive: -8.11% | –
19 | Cc1nc(SC(C)C(=O)Nc2ccccc2Cl)cc(-c2ccccc2)n1 (stereo not given) | inactive: -0.727% | –
20 | CCOc1ccccc1CNC(=O)Cn1cc2c(n1)-c1c(oc(C(=O)N3CCCC3)c1C)CC2 | – | inactive
21 | Cc1ccc(N2C(=O)N(Cc3cc(=O)n4ccccc4n3)c3ccccc3S2(=O)=O)cc1Cl | inactive: 9.96% | –
22 | Cc1ccc(C)c(NC(=O)C2CCCN(S(=O)(=O)c3cn(C)cn3)C2)c1 (stereo not given) | inactive: -7.52% | –
23 | COc1ccc(NC(=O)CCc2nnc3n(Cc4ccccc4Cl)c(=O)c4ccccc4n23)cc1 | inactive: -7.12% | –
24 | Cc1ccc2nc(-c3ccc(Cl)c(NC(=O)COc4ccc(C(C)C)cc4)c3)oc2c1 | inactive: 5.47% | –

Row | SMILES | activity change, negative = inhibition | outcome
25 | O=C1NC(=O)C(=Cc2ccc3nccc(-c4ccncc4)c3c2)S1 | inactive: -14.6% | –
26 | CCOC(=O)CSc1nc2ccccc2c(=O)n1-c1cccc(C)c1 | inactive: -2.77% | –
27 | CSc1ccc(CCNC(=O)c2ccc(-c3nc(COc4ccc(C)cc4)c(C)o3)cc2)cc1 | inactive: 2.35% | –
28 | CCNc1cc(N2CCN(C3CCCCC3)CC2)c2noc3c2c1C(=O)c1ccccc1-3 | inactive: -6.46% | –
29 | COc1ccc(Br)cc1CNC(=O)CCSCc1ccc(C)cc1 | inactive: -7.86% | –
30 | O=C(Cn1cc(S(=O)(=O)c2ccccc2)c(=O)c2cc3c(cc21)OCO3)Nc1ccc(Cl)cc1 | inactive: 13% | –
31 | O=C(CS(=O)(=O)c1cccc2nsnc12)N1CCN(c2cccc(C(F)(F)F)c2)CC1 | – | inactive
32 | Cc1ccc(S(=O)(=O)N2CCN(Cc3nc4ccc(C)cc4o3)CC2)cc1 | – | inactive
33 | COc1ccc(S(=O)(=O)NCCS(=O)(=O)N2CCN(c3ccccc3)CC2)cc1C | – | inactive
34 | O=C(O)Cc1sc(Nc2ccccc2)nc1-c1ccccc1 | inactive: 72.4% | –
35 | COC(=O)c1ccccc1NC(=O)C1=C(C)C(=O)OC12CCCCCC2 | – | inactive
36 | COc1ccc(C(=O)Nc2ccccc2SCc2cc(=O)c3cccc(C)c3[nH]2)cc1 | inactive: 7.13% | –
37 | O=C(O)Cc1ccc(NC2(c3ccccc3)C(=O)c3ccccc3C2=O)cc1 | – | inactive
38 | COCC(C)NC(=O)c1cc2c(=O)n3cccc(C)c3nc2s1 (stereo not given) | inactive: 14.6% | –
39 | CCC(C)NC(=O)CCc1c(C)nc2c(c(C)nn2-c2ccc(C)cc2)c1C (stereo not given) | inactive: -7.86% | –
40 | CCOc1cccc(CC(=O)NCc2ccc3c(c2)CCN3C(C)=O)c1OCC | inactive: -2.99% | –
41 | COc1ccc(CCCc2nnc(SCC(=O)Nc3cccc(C)c3)o2)cc1 | – | inactive
42 | Cc1nn(CCC(=O)NCc2ccc(Cl)cc2)c(=O)c2nn(-c3ccccc3)c(C)c12 | inactive: -3.41% | –
43 | COc1ccc(-c2nc3ccc(C4=NNC(=O)CC4C)cc3[nH]2)cc1 (stereo not given) | inactive: 13.5% | –
44 | COc1ccc(-c2onc(C)c2C)cc1S(=O)(=O)NCc1ccc(C)o1 | inactive: -16.7% | –
45 | COc1ccc(NC(=O)CSc2nc3ccccc3n2CC(=O)N2CCCCC2C)cc1 (stereo not given) | inactive: -0.945% | –
46 | CC(CNC(=O)C1CCN(C(=O)N2CCOc3ccc(Cl)cc32)CC1)c1ccccc1 (stereo not given) | inactive: 6.51% | –
47 | O=C(NCCCc1nc2ccccc2n1Cc1ccccc1Cl)c1ccco1 | inactive: 3.85% | –
48 | CCN(c1ccc(Cl)cc1)S(=O)(=O)c1nnc(NC(=O)c2ccccc2C)s1 | – | inactive

Row | SMILES | activity change, negative = inhibition | outcome
49 | O=[N+]([O-])c1cc(-c2nc(-c3ccco3)no2)ccc1NCc1ccccc1 | inactive: 5.41% | –
50 | CN(CC=CC#CC(C)(C)C)Cc1cccc2ccccc12 | inactive: -4.62% | –
51 | N#CC1=C2SCN(C3CCCCC3)CN2C(=O)CC1c1c(F)cccc1Cl (stereo not given) | inactive: 0.589% | –
52 | CCOc1ccccc1NC(=O)C1=C(C)Nc2ncnn2C1c1ccc(NC(C)=O)cc1 (stereo not given) | – | inactive
53 | Cc1ccc(NC(=O)CC2Nc3cc(C)c(C)cc3NC2=O)c(C)c1 (stereo not given) | inactive: 6.35% | –
54 | Cc1ccc(Cc2nc3ccccc3nc2SCC(=O)N2CCN(c3ccccc3)CC2)cc1 | inactive: 0.533% | –
55 | Cc1nn(CCCC(=O)NCc2ccc(OC(C)C)cc2)c(=O)c2c1sc1ccccc12 | inactive: 23.9% | –
56 | COc1ccc(S(=O)(=O)c2nnn(-c3ccccc3F)c2C)cc1 | inactive: 1.19% | –
57 | COc1ccc(-n2nc(C(=O)N(C)c3cc(Cl)ccc3OC)c3c4ccccc4n(C)c3c2=O)cc1 | inactive: -15% | –
58 | COc1ccc(Cn2c(CO)cnc2SCc2ccc(F)cc2)cc1 | inactive: -1.91% | –
59 | CCc1ccc(Sc2cc(C(=O)O)c3ccccc3n2)cc1 | inactive: 12.1% | –
60 | CCOc1ccc(NC(=O)c2c(Nc3ccccc3C)sc(C(=O)c3ccc(Cl)cc3)c2N)cc1 | inactive: -8.08% | –
61 | Cc1cccc(N(Cc2cc3ccccc3[nH]c2=O)C(=O)c2cccc(Cl)c2)c1 | inactive: -13.3% | –
62 | Cc1cccc(CCNC(=O)c2ccc(CSCc3cccc(Cl)c3)o2)c1 | – | inactive
63 | Cc1ccc(N2CC(NC(=O)CCc3ccccc3)CC2=O)cc1C (stereo not given) | – | inactive
64 | CCCn1c(=N)n(CC(O)COc2ccccc2OC)c2ccccc21 (stereo not given) | inactive: 3.56% | –
65 | Cc1ccc(S(=O)(=O)c2[nH]c(-c3ccccc3)nc2SCCC(=O)O)cc1 | inactive: 2.11% | –
66 | CCn1ccc2c(OCC(=O)NCc3ccccc3)cccc2c1=O | inactive: -0.915% | –
67 | CCCN1CCN(c2cc3c(cc2F)c(=O)c(S(=O)(=O)c2ccc(CC)cc2)cn3CC)CC1 | inactive: -36.7% | –
68 | NC(=O)c1ccc(NC(=O)C2CCN(S(=O)(=O)Cc3ccccc3)CC2)cc1 | – | inactive
69 | Cc1c(Cl)cccc1NC(=O)CSc1nc2ncccc2o1 | inactive: 2.04% | –
70 | C[C@@H]1[C@H](O)[C@@H](C)C=CC=CC=CC=CC=CC=CC=C[C@H](O[C@@H]2O[C@H](C)[C@H](O)[C@H](N)[C@@H]2O)C[C@@H]2O[C@](O)(C[C@@H](O)C[C@@H](O)[C@H](O)CC[C@@H](O)C[C@@H](O)CC(=O)O[C@H]1C)C[C@H](O)[C@@H]2C(=O)O | inactive: 0.804% | –
71 | Cc1ccc(C(=O)O)cc1NC1(c2ccccc2)C(=O)c2ccccc2C1=O | – | inactive
72 | COc1ccc2oc(-c3ccc(C)c(NC(=O)c4ccc(-c5ccccc5[N+](=O)[O-])o4)c3)nc2c1 | inactive: 5.3% | –

Row | SMILES | activity change, negative = inhibition | outcome
73 | Cc1cccc(-c2nc3c(cnn3-c3ccccc3)c(=O)n2-c2ccc(Br)cc2)c1 | inactive: -12% | –
74 | CC1Cn2c(C(=O)NCc3cccc(Br)c3)cc3cccc(c32)S1 (stereo not given) | – | inactive
75 | CC(C)(C)C1CCc2nc(NC(=O)c3ccc([N+](=O)[O-])cc3)sc2C1 (stereo not given) | inactive: -2.34% | –
76 | Cc1ccc2[nH]c(CSc3nnc(NC(=O)c4ccccc4F)s3)cc(=O)c2c1 | inactive: 2.24% | –
77 | CCc1ccccc1NC(=O)c1sc2nc(C)cc(COC)c2c1N | inactive: 0.621% | –
78 | O=C(CCSCc1cccc(Cl)c1)NCc1ccc(F)cc1Cl | – | inactive
79 | COc1ccccc1CNC(=O)C1CCCN(c2nnc(C)c3c(C)n(-c4ccccc4)nc23)C1 (stereo not given) | inactive: -25.8% | –
80 | COc1ccc(OCC(=O)N(Cc2cccs2)c2ccc(OC)cc2)cc1 | – | inactive
81 | COCc1cc(C)nc2sc3c(c12)NC(c1ccc(O)c(OC)c1)N(c1ccccc1)C3=O (stereo not given) | inactive: -1.53% | –
82 | CC(C)c1ccc(CNc2nc(-c3ccco3)nn2C(=O)c2ccc([N+](=O)[O-])cc2)cc1 | inactive: -3.46% | –
83 | CSCCC(NS(=O)(=O)c1ccc2c(c1)oc(=O)n2C)C(=O)Nc1ccc(Cl)cc1 (stereo not given) | inactive: -2.5% | –
84 | COc1cc(OC)cc(-c2cc3nc(C)c(CCC(=O)Nc4ccc(C(C)=O)cc4)c(C)n3n2)c1 | inactive: 0.147% | –
85 | O=C(NC1(C(F)(F)F)C(=O)Nc2c1c(=O)[nH]c(=O)n2-c1ccccc1)c1ccccc1Cl (stereo not given) | inactive: 1.77% | –
86 | C=Cc1ccc(Cn2c(=O)cc(C)c3c(C)nn(-c4ccccc4)c32)cc1 | inactive: -2.59% | –
87 | CCOCCCNc1nc2ccccc2n2c(CC)nnc12 | inactive: 0.788% | –
88 | COc1ccc(-c2noc(N3CCC(C(=O)N4CCN(c5ccccc5F)CC4)CC3)n2)cc1 | inactive: 5.1% | –
89 | COc1ccc(NC(=O)Cn2c(=O)n(Cc3ccc4c(c3)OCO4)c(=O)c3ccc(C(=O)NC4CCCCC4)cc32)cc1 | inactive: -7.53% | –
90 | CCn1c(C)c(C)c2cc(C(=O)NCc3ccc(OC(C)C)cc3)ccc21 | inactive: -8.18% | –
91 | COc1ccc2c(c1)cc1c(=O)n(CC(=O)NCCCOC(C)C)nc(C)n12 | inactive: 9.7% | –
92 | COc1cc2c(C(=O)N3CCN(c4cccc(C(F)(F)F)c4)CC3)cn(CC(C)C)c(=O)c2cc1OC | inactive: 0.646% | –
93 | COc1ccc(-c2cn3nc(N4CCCC(C(=O)Nc5ccccc5OC)C4)sc3n2)cc1 (stereo not given) | inactive: -10.1% | –
94 | COc1ccc(Cl)cc1S(=O)(=O)Nc1cccc(-c2ccc(N3CCCC3)nn2)c1 | – | inactive
95 | Cc1nn2c(=O)cc(COC(=O)c3ccc(NC(=O)c4cccc(Br)c4)cc3)nc2s1 | – | inactive

Reference: PubChem BioAssay AID1963576 (National Center for Advancing Translational Sciences (NCATS), 2024)
